# Hit rate of the full screen: of about 310,000 compounds, about 14,000 (4.5%) showed an effect of 50% or more. The effect is printed as a negative number. The list shows a part of the results.
# Target: human ether-à-go-go-related gene (hERG) potassium channel (human, UniProt Q12809)
# Experiment: primary screen, population patch clamp on CHO cells stably expressing hERG
# 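Also: peak tail current of the secondary pulse compared with the same well before compound.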
# Sequence of human ether-à-go-go-related gene (hERG) potassium channel (Q12809 whole entry, looked up): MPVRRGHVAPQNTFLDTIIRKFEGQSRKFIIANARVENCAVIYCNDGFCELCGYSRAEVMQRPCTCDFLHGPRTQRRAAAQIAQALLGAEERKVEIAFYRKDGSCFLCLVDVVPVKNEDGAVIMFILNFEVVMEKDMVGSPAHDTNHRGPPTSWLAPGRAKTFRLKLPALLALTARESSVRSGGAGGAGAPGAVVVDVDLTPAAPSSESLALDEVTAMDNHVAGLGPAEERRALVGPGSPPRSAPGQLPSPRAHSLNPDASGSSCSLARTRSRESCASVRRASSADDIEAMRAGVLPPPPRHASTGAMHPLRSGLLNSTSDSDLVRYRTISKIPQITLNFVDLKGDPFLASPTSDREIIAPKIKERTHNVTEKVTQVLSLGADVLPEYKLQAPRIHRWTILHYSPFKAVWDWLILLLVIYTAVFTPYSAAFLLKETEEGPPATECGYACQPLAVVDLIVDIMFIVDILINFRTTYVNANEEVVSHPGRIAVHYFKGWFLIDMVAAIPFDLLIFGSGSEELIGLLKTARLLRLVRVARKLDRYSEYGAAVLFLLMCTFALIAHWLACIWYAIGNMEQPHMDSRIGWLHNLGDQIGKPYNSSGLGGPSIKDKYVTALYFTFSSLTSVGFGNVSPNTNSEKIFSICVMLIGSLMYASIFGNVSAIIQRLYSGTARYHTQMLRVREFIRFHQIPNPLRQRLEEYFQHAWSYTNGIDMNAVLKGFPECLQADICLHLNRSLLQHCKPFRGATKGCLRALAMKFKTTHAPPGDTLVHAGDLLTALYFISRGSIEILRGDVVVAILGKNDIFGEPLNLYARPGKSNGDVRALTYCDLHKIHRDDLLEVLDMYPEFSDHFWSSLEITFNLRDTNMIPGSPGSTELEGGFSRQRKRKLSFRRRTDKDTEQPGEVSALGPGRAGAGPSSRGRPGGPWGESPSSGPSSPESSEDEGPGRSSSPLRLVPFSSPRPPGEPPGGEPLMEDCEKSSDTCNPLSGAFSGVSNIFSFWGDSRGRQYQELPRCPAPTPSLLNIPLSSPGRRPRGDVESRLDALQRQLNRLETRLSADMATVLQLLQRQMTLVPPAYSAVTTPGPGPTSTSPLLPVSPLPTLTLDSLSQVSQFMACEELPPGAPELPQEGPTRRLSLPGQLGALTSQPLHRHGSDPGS
row,Structure (SMILES),"hERG current change (%, negative = inhibition) at 10uM [%]"
1,COC(=O)C(NC(C)=O)(Nc1nc(C)cs1)C(F)(F)F (stereo not drawn),4.77
2,CC1Oc2cc3oc4c(O)c5c(cc4c(=O)c3c(O)c2C1(C)C)C=CC(C)(C)O5 (stereo not drawn),-1.17
3,COc1ccc(-n2ccsc2=S)cc1,-3.38
4,COc1ccc(C)cc1NC(=O)C(=O)N1CCCC1,19.2
5,Cc1ccc(CNC(=O)CC(NC(=O)c2ccccc2)c2ccccc2)cc1 (stereo not drawn),-13.2
6,CCOc1ccc2nc(NC(=O)/C=C/c3ccc4c(c3)OCO4)sc2c1,14.9
7,CNC(=S)N(Cc1ccco1)Cc1cc2cc(OC)c(OC)cc2[nH]c1=O,-29.9
8,COc1ccc(-c2nc(N3CCOCC3)nc3n[nH]c(N)c23)cc1,-7.86
9,CN(C)/C=N/NC(=O)c1ccc(Cl)cc1,13.4
10,CCOc1ccc(-n2c(SCC(=O)NCc3ccco3)nc3ccccc3c2=O)cc1,18.8
11,Cc1ccc(S(=O)(=O)N2[C@@H](c3ccccc3)C(C(=O)O)=CC[C@H]2c2ccc3c(c2)OCO3)cc1,9.21
12,CCN1CCN(S(=O)(=O)c2ccc(Cl)c(C(=O)NCCc3ccccc3)c2)CC1,-4.31
13,O=C(/C=C/c1ccc(Cl)cc1)NCCSc1ccccc1,-7.28
14,COc1ccc2nc(/N=C/c3c(C)[nH]n(-c4ccc(C)cc4C)c3=O)sc2c1,8.94
15,COc1ccc(C=O)cc1CN1CCCN(Cc2ccccc2F)S1(=O)=O,-3.87
16,CCOC(=O)c1c(C)oc2c1c1c(c3ccccc32)OCN(CCCC(=O)O)C1,-3.96
17,CCNS(=O)(=O)c1ccc(Br)c(C(=O)OC(C)C(=O)NCC2CCCCC2)c1 (stereo not drawn),-16.5
18,COc1ccccc1NC(=O)CSc1nc(N)cc(N)n1,-3.66
19,Cc1ccc(C)c(NC(=O)c2ccccn2)c1,-10.7
20,CN(CCc1cn[nH]c1)Cc1nc(Cc2ccccc2)no1,7.12
21,Cc1cccc(NC(=O)C2(c3ccccc3)CCOCC2)c1,15.5
22,CC1(C)C=C(c2ccc(C(=O)O)s2)CC(C)(C)N1.Cl,5.49

row,Structure (SMILES),"hERG current change (%, negative = inhibition) at 10uM [%]"
1,COc1ccc(NC(=O)c2ccc3ccccc3c2OC)cc1,-13.1
2,Cc1ccc(-c2ncccc2OC(=O)C23CC4CC(CC(C4)C2)C3)cc1.Cl,12
3,Cc1ccc(S(=O)(=O)c2c(O)c3ccc(C(=O)O)cc3[nH]c2=O)cc1,16.1
4,CC1(C)C2CC=C(CN3CCC(O)CC3)C1C2 (stereo not drawn),-7.45
5,COc1ccc(C(=O)Nc2ccc(-n3nncc3C(C)(C)C)cc2)cc1,-26.4
6,O=C(Nc1cccc(F)c1)N1CCN(C(=O)c2ccco2)CC1,-10.4
7,Cc1noc(NS(=O)(=O)c2ccc(NC(=O)C34CC5CC(C3)CC(n3cnc(Cl)n3)(C5)C4)cc2)c1C,-10.4
8,CCn1cc(C(=O)NCc2ccc3c(c2)OCO3)c(=O)c2cc(F)c(N3CCN(C)CC3)cc21,-37.2
9,CCC(OC(=O)c1nsc(Cl)c1Cl)C(=O)NC(C)(C)C (stereo not drawn),14.1
10,O=C(CN1CCN(S(=O)(=O)/C=C/c2ccccc2)CC1)Nc1ccccc1N1CCOCC1,-42.4
11,O=c1[nH]c2cccnc2n1-c1cccc([N+](=O)[O-])c1,4.58
12,CN(CCOc1ccccc1)C(=O)CNC(=O)c1ccc(C(C)(C)C)cc1,-33.9
13,COc1cccc(NC(=O)CN(C)C(=O)c2ccc(NC3CC3)c([N+](=O)[O-])c2)c1,-73.4
14,O=C(NCC(=O)N1CCCC(C(F)(F)F)C1)c1ccccc1F (stereo not drawn),8.85
15,Cc1cc(-c2ccccc2)n2nc(N)nc2n1,8.73
16,CS(=O)(=O)N1CCCC(C(=O)NCc2ccccn2)C1 (stereo not drawn),0.263
17,CCOC(=O)c1cccc(NC(=O)CSc2nnnn2C)c1,7.1
18,CCOC(=O)C1=NN(c2ccc(Cl)cc2)C(=O)C1,15.1
19,O=S(=O)(c1ccc(F)c(F)c1F)N1CCN(C(=S)Nc2ccccc2)CC1,-1.14
20,O=C1[C@@H]2C(c3ccc(F)cc3)=NO[C@@H]2C(=O)N1Cc1ccccc1,13
21,O=c1[nH]c(=O)n(-c2ccc(Br)cc2)c(O)c1C=NC(CO)(CO)CO,4.25
22,CCn1c(-c2ccc(C(C)(C)C)cc2)n[nH]c1=S,13.7

row,Structure (SMILES),"hERG current change (%, negative = inhibition) at 10uM [%]"
1,Cc1cccc(-c2cnn(-c3ccccc3)c2N)c1,11.2
2,Cc1sc(N2C(=O)C3C(C2=O)[C@H]2C=C[C@@H]3C2)c(C#N)c1C (stereo partly drawn),0.8
3,Cc1cccc(N2C(=O)c3cccc4c(N)ccc(c34)C2=O)c1,0.393
4,Cc1nc2cc(C(=O)OCC(=O)NC(C)C(C)C)ccc2n1-c1ccccc1 (stereo not drawn),-24.9
5,COc1ccc(C(=O)NCC(=O)OCC(=O)c2ccc3c(c2)NC(=O)CO3)cc1,-65.1
6,O=C(CSc1nnc(CNC(=O)c2ccco2)o1)Nc1cccc(C(F)(F)F)c1,-48.3
7,COc1ccc(NC(=O)COc2ccc(/C=C/c3cccc[n+]3C)cc2OC)cc1.[I-],10.6
8,COc1ccccc1CC(=O)N(Cc1ccccc1)c1cccc(C)c1,-2.79
9,COc1ccc(NC(=O)CS(=O)CC(=O)NCC2OCCc3ccccc32)cc1 (stereo not drawn),16.2
10,Cc1nc2ccccc2c(=O)n1CCCn1ccnc1,-17
11,CCOC(=O)N1CCN(C(=O)CS(=O)Cc2nc(-c3ccc(OC)c(OC)c3)oc2C)CC1 (stereo not drawn),2.5
12,CC(C)(C)c1ccc(OC(=O)c2cccnc2)cc1,-7.01
13,Cc1cc(NCc2ccco2)n2ncnc2n1,4.39
14,COC(=O)C1=C(C)N(c2cccc(OC)c2)C(=O)/C1=C\c1ccco1,-26.5
15,COC(=O)/C=C/C(=O)NCc1ccco1,10
16,COC(=O)COc1ccc(S(=O)(=O)Nc2ccc3c(c2)OCO3)cc1Cl,-1.46
17,COc1ccccc1C(=O)NNC(=O)c1sccc1-n1cccc1,28.5
18,COC(=O)C(C(=O)OC)=C(/C=C/C=C/N(C)C)N(C)C,13.9
19,CCOc1ccc(CNC(c2ccccc2)c2ccccc2)cc1.Cl,1.68
20,CC1c2nc3ccccc3n2C(CC(=O)NCCCN2CCOCC2)C(=O)N1Cc1ccccc1 (stereo not drawn),-5.92
21,COc1cc(CNc2ccc(N3CCOCC3)cc2)ccc1OCC(=O)NC(C)(C)C,14.6
22,CC(=O)NC1(C(F)(F)F)NC(=O)N(CCc2ccccc2)C1=O (stereo not drawn),-3.4

row,Structure (SMILES),"hERG current change (%, negative = inhibition) at 10uM [%]"
1,CCCS(=O)(=O)c1nc(S(=O)(=O)c2ccc(C)cc2)c(N2CCC(O)CC2)s1,-16.4
2,COC(=O)C1=C(C)N(CCCC(=O)O)C(=O)NC1c1cccc(Cl)c1Cl (stereo not drawn),0.17
3,CCn1c(CSc2nc(C)cc(C)n2)nnc1SCC(=O)Nc1cccc2ccccc12,-4.98
4,CCOC(=O)C1CCN(c2cc(C)nc3ccc(OC)cc23)CC1,-73.8
5,O=[N+]([O-])c1ccc(S(=O)(=O)NCCS(=O)(=O)N2CCN(c3ccccc3)CC2)cc1,-24.8
6,CC(C)Oc1ccc(S(=O)(=O)N2CCOCC2)cc1NC(=O)c1ccc(N2CCCC2=O)cc1,2.04
7,O=c1cc(CN2CCN(Cc3ccccc3)CC2)c2cc(O)ccc2o1,-68.2
8,COc1ccc(C)cc1NC(=O)CC(O)(C(F)(F)F)C(F)(F)F,1.84
9,COCCOC(=O)C1=C(C)NC2=C(C(=O)CC(c3cccs3)C2)C1c1ccsc1 (stereo not drawn),5.12
10,COCC(=O)N(C)CC1CCCN(CCc2ccccc2OC)C1 (stereo not drawn),7.26
11,Nc1sc(-c2ccccc2)n[n+]1Cc1cccc2cccnc12.[Br-],-66.7
12,Nn1c(SCC(=O)Nc2c(Cl)cccc2Cl)nncc1=O,-1.53
13,O=C(Nc1ccc(Cl)c(C(F)(F)F)c1)[C@@H]1CC=C[C@@H]2CCN(Cc3ccccc3)C(=O)[C@@H]21,-15.6
14,Cc1cc(C)n(CC(=O)NC2C(=O)N3C(C(=O)O)=C(CSc4nnc(C)s4)CSC23)n1 (stereo not drawn),17.9
15,COc1ccc(-n2c(SCC(=O)Nc3nccs3)nnc2-c2ccoc2C)cc1,-80
16,CCOc1ccccc1C(=O)N(C)Cc1cc2cc(OC)ccc2[nH]c1=O,-17.1
17,N#CC1=C(N)C2=CCCC[C@H]2[C@H](c2ccc(Br)cc2)C1(C#N)C#N,-4.86
18,Oc1nc(Nc2ccc(Cl)cc2Cl)sc1/C=C1\C=Nc2ccccc21,9.08
19,O=C1CC(N2CCN(c3ccccn3)CC2)C(=O)N1CC(c1ccccc1)c1ccccc1 (stereo not drawn),-64
20,COc1ccc(OCc2cc(C(=O)N3CCSCC3)no2)c(Cl)c1,-9.25
21,COc1ccc2c(=O)c(C(=O)O)c(-c3ccc4c(c3)OCO4)n(C)c2c1,17.2

# — publication PMC4336329 (PLoS ONE, 2015)
